Screen size: about 310,000 compounds; about 14,000 (4.5%) showed an effect of 50% or more. Effects have a minus sign here. The list shows a part of the results.

The results in this text go back to article PMC4336329 (PLoS ONE, 2015).
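Note: peak tail current of the secondary pulse compared with the same well before compound.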

Chain of human ether-à-go-go-related gene (hERG) potassium channel (Q12809 whole entry, looked up): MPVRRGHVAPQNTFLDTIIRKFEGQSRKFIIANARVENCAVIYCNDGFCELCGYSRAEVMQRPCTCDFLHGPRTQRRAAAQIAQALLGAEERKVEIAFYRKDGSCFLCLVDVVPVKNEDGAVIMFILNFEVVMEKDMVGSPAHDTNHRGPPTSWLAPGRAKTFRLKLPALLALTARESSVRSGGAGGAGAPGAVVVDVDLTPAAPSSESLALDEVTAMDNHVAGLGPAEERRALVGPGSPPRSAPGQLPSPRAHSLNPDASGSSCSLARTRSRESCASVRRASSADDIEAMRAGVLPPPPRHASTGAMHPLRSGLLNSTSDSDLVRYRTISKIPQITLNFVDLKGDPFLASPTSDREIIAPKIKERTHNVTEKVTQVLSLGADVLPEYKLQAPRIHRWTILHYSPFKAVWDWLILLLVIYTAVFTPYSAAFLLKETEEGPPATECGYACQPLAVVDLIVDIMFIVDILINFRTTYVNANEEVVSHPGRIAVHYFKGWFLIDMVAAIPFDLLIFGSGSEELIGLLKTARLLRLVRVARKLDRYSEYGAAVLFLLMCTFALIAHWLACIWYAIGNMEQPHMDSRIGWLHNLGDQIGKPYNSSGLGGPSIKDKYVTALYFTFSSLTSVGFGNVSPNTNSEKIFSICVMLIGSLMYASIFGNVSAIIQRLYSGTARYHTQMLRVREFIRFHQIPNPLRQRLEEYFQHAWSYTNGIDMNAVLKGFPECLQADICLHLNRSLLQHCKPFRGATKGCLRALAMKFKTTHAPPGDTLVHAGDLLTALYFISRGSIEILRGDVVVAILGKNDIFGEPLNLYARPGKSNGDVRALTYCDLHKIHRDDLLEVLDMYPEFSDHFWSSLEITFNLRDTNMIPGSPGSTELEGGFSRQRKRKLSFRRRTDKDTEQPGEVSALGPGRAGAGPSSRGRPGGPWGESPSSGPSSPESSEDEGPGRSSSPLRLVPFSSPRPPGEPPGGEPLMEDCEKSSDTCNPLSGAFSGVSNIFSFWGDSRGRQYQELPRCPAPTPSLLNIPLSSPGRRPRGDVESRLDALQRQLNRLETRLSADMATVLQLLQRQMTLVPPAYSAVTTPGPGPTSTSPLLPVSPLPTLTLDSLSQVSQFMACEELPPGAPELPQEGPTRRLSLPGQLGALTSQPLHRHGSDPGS

This test concerns the target human ether-à-go-go-related gene (hERG) potassium channel (human, UniProt Q12809). In words: primary screen, population patch clamp on CHO cells stably expressing hERG.
Consider `COc1ccc(C(=O)C[n+]2cccc(C)c2)cc1.[Br-]`, for which the “hERG current change (%, negative = inhibition) at 10uM” value is 13%. Under `COc1ccc(CN2C(=O)CCCc3ccccc32)cc1` stands 3.69%. Regarding `CC1CC(C)CN(C(=O)Nc2ccccc2F)C1` (stereo not drawn), the “hERG current change (%, negative = inhibition) at 10uM” value is 22.9%.

In the case of `c1ccc(-n2ncc3c2ncn2nc(CSc4nc5ccccc5s4)nc32)cc1`, the “hERG current change (%, negative = inhibition) at 10uM” value turned out to be 16%.

As for `COc1ccc(C(=O)CCC(=O)Nc2cccnc2)cc1OC`, the “hERG current change (%, negative = inhibition) at 10uM” value is given as 17.9%. Then `COC(=O)Nc1ccc2c(c1)N(C(=O)CCN1CCN3CCCC3C1)c1ccccc1S2.Cl` (stereo not drawn), with -31.3%; and `O=C(CCN1C(=O)c2ccccc2C1=O)NC(=S)Nc1ccccc1Cl`, with -1.16%; and `COC(=O)Cn1c(O)c(N=NC(=O)CNC(=O)COc2cccc(C)c2)c2ccccc21`, with -30.1%. Regarding `O=C(CSc1nnc2ccccn12)NNC(=O)c1ccccc1`, the “hERG current change (%, negative = inhibition) at 10uM” value turned out to be 11.9%.

In the case of `CCSc1cc(Cl)nc(N)n1`, the “hERG current change (%, negative = inhibition) at 10uM” value is given as -4.05%. Under `COc1cc(C(=O)NCCCNc2nc3cc(C)cc(C)c3cc2C#N)cc(OC)c1OC` stands -22.9%; under `O=C(CSCc1ccc(Br)cc1)Nc1ccc(S(=O)(=O)N2CCCCCC2)cc1`, 11.6%; under `S=C(NCCc1ccccn1)Nc1ccccc1`, 17.5%. Then `Cc1ccc(N=Cc2nc(-c3ccco3)oc2O)cc1`, with -0.27%; and `COc1ccc(OC)c(-c2cc(C(=O)N/N=C(\C)c3cccnc3)c3ccccc3n2)c1`, with -65.5%; and `COC(=O)c1ccc2c(=O)[nH]c(CSc3nnc(C(F)(F)F)n3C)nc2c1`, with 12.1%.

In the case of `COC(=O)c1ccc(N2C(=O)c3cc(N4CCOCC4)c([N+](=O)[O-])cc3C2=O)cc1`, the “hERG current change (%, negative = inhibition) at 10uM” value was found to be 3.52%. Then `CC1CCN(C(=O)Cn2c(=O)c3cccn3c3ccccc32)CC1`, with 6.24%; and `Cc1cc(C)cc(NC(=S)NC2CC3CCCC(C2)N3C2CC2)c1` (stereo not drawn), with -67.3%; and `COc1ccccc1CNC(=O)c1ccc(Cl)c(NC2=NC3CS(=O)(=O)CC3S2)c1` (stereo not drawn), with 4.06%. Take `COc1cc(/C=C2/NC(=O)N(CC(=O)Nc3ccc(C)cc3)C2=O)ccc1Oc1ccc([N+](=O)[O-])cn1`: the “hERG current change (%, negative = inhibition) at 10uM” value was determined as 9.57%. Under `COc1cc(OC)cc(C(=O)NNC(=O)c2cc3c(s2)CCCC3)c1` stands 40.9%; under `N/C(=N\OCc1ccc([N+](=O)[O-])cc1)c1ccccn1`, -9.21%; under `Cc1nc(N)sc1N=Nc1ccc(F)cc1`, 7.02%. Then `COc1ccc(CNC(=O)CSCc2ccccc2Cl)cc1`, with -7.18%; and `CN(C)C=O.N#Cc1c(N)nc2c3c(sc(=N)c2c1N)NC(=O)CC3c1ccccc1Cl` (stereo not drawn), with 24.1%; and `CCCC(C)NC(=O)c1cc(C(=O)OC)cc([N+](=O)[O-])c1` (stereo not drawn), with -8.34%.

For the compound `Cc1cc(Br)ccc1OCCCCN1CCC(C)CC1.O=C(O)C(=O)O`, the “hERG current change (%, negative = inhibition) at 10uM” value is -67.9%.

As for `COC(=O)Cc1csc(NC(=O)CSc2nnc3ccccn23)n1`, the “hERG current change (%, negative = inhibition) at 10uM” value is 19.4%.

Take `COC(=O)c1ccc(C2=NOC(C)(c3sc(-c4ccccc4)nc3C)C2)cc1` (stereo not drawn): the “hERG current change (%, negative = inhibition) at 10uM” value was 7.3%. As for `CCOc1cc(/C=C/c2nc3cc(C)c(C)cc3s2)ccc1OCC(=O)N1CCOCC1`, the “hERG current change (%, negative = inhibition) at 10uM” value came to 0.659%. Take `O=C(NNC(=S)NC(=O)c1ccc(F)cc1)c1cccnc1`: the “hERG current change (%, negative = inhibition) at 10uM” value is reported as 16%.

For the compound `N/C(Cc1ccc(Cl)cc1)=N\OC(=O)c1cccc2ccccc12`, the “hERG current change (%, negative = inhibition) at 10uM” value is 3.95%. Then `Nc1ccccc1Sc1c[nH]c2ccccc12`, with 5.21%; and `O=S(=O)(c1ccc(Oc2ccc(Br)cc2)cc1)N1CCOCC1`, with -21.6%. Under `CC(C)CC(NC(=O)CC12CC3CC(CC(C3)C1)C2)C(=O)NC1=NCCS1` (stereo not drawn) stands -3.72%. Under `Cn1c(=O)c2c(nc(CN3CCOCC3)n2CCN2CCOCC2)n(C)c1=O` stands 3.09%; under `OCCN(C=NC1=NN(c2cccc(C(F)(F)F)c2)CC1)CCO`, 2.6%.

In the case of `O=C(CCc1ccccc1)n1nc(-c2ccccc2)nc1NCc1ccco1`, the “hERG current change (%, negative = inhibition) at 10uM” value is listed as 11.4%.

As to `COc1ccc(S(=O)(=O)NNC(=O)C23CC4CC(CC(C4)C2)C3)cc1[N+](=O)[O-]`, the “hERG current change (%, negative = inhibition) at 10uM” value was -33.1%.

Take `C=CCn1c(SCC(=O)NCCCC(=O)OCC)nc2scc(-c3ccco3)c2c1=O`: the “hERG current change (%, negative = inhibition) at 10uM” value is listed as -46.2%. Consider `CCCOC(=O)Nc1c(C)cccc1C(C)C`, for which the “hERG current change (%, negative = inhibition) at 10uM” value is -10.1%. Then `COCCNC(=O)c1ccc(CSc2nc3ccccc3s2)cc1`, with -0.171%. Under `COc1ccc(C2C(C(=O)NCCN3CCOCC3)c3ccccc3C(=O)N2C)cc1OC` (stereo not drawn) stands 18%. Then `O=C(NC(=S)N1CCN(c2c(Cl)cccc2[N+](=O)[O-])CC1)c1cccs1`, with -2.97%; and `Cc1ccc(Sc2c(CO)c(-c3ccccc3)nn2C)cc1`, with 1.92%.

On to `COC(=O)COc1ccc(S(=O)(=O)NCc2ccncc2)cc1`, for which the “hERG current change (%, negative = inhibition) at 10uM” value is on record as -11.5%.

`OCCN(CCO)c1nc2ccccc2[nH]1`: the “hERG current change (%, negative = inhibition) at 10uM” value is 10.5%. As to `Cc1ccc(-c2nn(Cc3ccccc3)cc2/C=C/C(=O)O)cc1C`, the “hERG current change (%, negative = inhibition) at 10uM” value was 25.8%. Under `COc1cc(C(=O)NC(=S)N2CCCCCC2)cc(OC)c1OC` stands 15.2%; under `Cc1cccc(NS(=O)(=O)c2cc3c(cc2C)NC(=O)CO3)c1`, -37.1%; under `CCNC(=O)NC(=O)C(C)Sc1nc2ccccc2n1CC(C)C` (stereo not drawn), -12.9%. Under `CCN(CC)Cc1c(O)ccc2c(=O)c(-c3ccc4c(c3)OCCO4)coc12` stands 4.84%; under `O=C(OCC(=O)c1ccc(Cl)s1)c1ccc(CO)cc1`, -2.65%; under `CC1(C)c2ssc(=S)c2-c2ccccc2N1C(=O)c1ccco1`, 9.15%. `COc1cccc(/C=C2\Sc3ccc(C(=O)NCc4cccnc4)cc3N(C)C2=O)c1`: the “hERG current change (%, negative = inhibition) at 10uM” value is recorded as -30.9%. With `O=C(Cc1ccc([N+](=O)[O-])cc1)N1CCCCCC1`, the “hERG current change (%, negative = inhibition) at 10uM” value is recorded as -21.9%.

Regarding `O=C(CSc1nnc(-c2ccc(F)cc2)o1)c1ccc2c(c1)OCCO2`, the “hERG current change (%, negative = inhibition) at 10uM” value is on record as -8.06%. Then `COc1cccc(N2CC(C(=O)Nc3nnc(SCC(=O)NC4CCCC4)s3)CC2=O)c1` (stereo not drawn), with 14.7%; and `CCCNC(=O)COC(=O)CCC(=O)c1cccs1`, with 1.23%; and `Cc1ccc(S(=O)(=O)NCC2CCCO2)cc1[N+](=O)[O-]` (stereo not drawn), with 18.3%. Under `O=C(c1cccc(Br)c1)N1CCN(S(=O)(=O)N2CCCCCC2)CC1` stands -23.1%. Then `O=C(CN1CCN(S(=O)(=O)c2ccc(Br)cc2)CC1)Nc1ccc(F)cc1`, with -67.8%. Take `CCOC(=O)c1c(-c2ccccc2)csc1NC(=S)NC`: the “hERG current change (%, negative = inhibition) at 10uM” value is recorded as -3.27%. Under `COc1ccc(CCC(C)Nc2ccc(F)c(F)c2)cc1` (stereo not drawn) stands 5.47%. Under `CN1CCN(C(=S)NC(=O)c2ccc(Br)cc2)CC1` stands 2.05%. Then `COc1ccc2oc(=O)c(C(=O)NCCc3ccc(OC)c(OC)c3)cc2c1`, with 2.39%; and `CCCCn1c(N)c(N(CCOC)C(=O)c2cc(CC)c(C)s2)c(=O)[nH]c1=O`, with 4.56%; and `COc1ccc(-c2coc3cc4oc(=O)c5ccccc5c4cc23)cc1F`, with 3.58%. With `CN(C)c1nc(N(C)C)n(C(=O)c2cccs2)n1`, the “hERG current change (%, negative = inhibition) at 10uM” value was determined as 6.55%.

For the compound `CCOC(=O)Cc1c(C)nc2c(-c3ccccc3)cnn2c1C`, the “hERG current change (%, negative = inhibition) at 10uM” value is reported as -13.8%. `O=C(Cn1cncn1)c1ccc(F)cc1F`: the “hERG current change (%, negative = inhibition) at 10uM” value stood at 24.7%. Under `O=S(=O)(c1ccc(N2CCN(S(=O)(=O)c3ccc4c(c3)OCCO4)CC2)nc1)N1CCCC1` stands -3.29%; under `Cc1cccc(NC(=S)N(CCN(C)C)Cc2cc3cc(C)cc(C)c3[nH]c2=O)c1`, -49.7%. Under `CC(=O)c1ccc(N2CCN(S(=O)(=O)c3ccc4c(c3)CC(C)N4C(C)=O)CC2)cc1` (stereo not drawn) stands -22.3%; under `CC(C)=CCC/C(C)=C/CN(CC(C)O)CC(C)O` (stereo not drawn), 5.47%. Under `Cc1oncc1-c1csc(-c2ccccc2)n1` stands 11.1%; under `CC(=O)c1ccc(OC(=O)c2cccs2)cc1`, 15.9%. Turning to `Fc1ccc(-c2nnc(-c3ccc(F)cc3)o2)cc1`, the “hERG current change (%, negative = inhibition) at 10uM” value was 11.5%. Then `NC(=O)c1nc(C(=O)N2CCCCC2)c2ccccc2n1`, with 17.1%; and `COC(=O)c1ccccc1NS(=O)(=O)c1ccc(Cl)nc1`, with 9.53%; and `Cc1cc(=O)oc2c(CN3CCN(CCO)CC3)c(O)ccc12`, with 8.71%. Under `C/C(=C\C(=O)c1ccccc1)Nc1cccc(O)c1` stands 10.8%. For `Cc1cccn2c(=O)c(/C=C(\C#N)S(=O)(=O)c3ccccc3)c(Oc3ccc(Cl)cc3)nc12`, the “hERG current change (%, negative = inhibition) at 10uM” value is given as 8.86%. Under `Cc1ccc(S(=O)(=O)N2CCCCC2)cc1NC(=O)CNC(C)c1ccc(Cl)c(Cl)c1` (stereo not drawn) stands -4.28%; under `CC(C)(C)NC(=O)NC(=O)COC(=O)C1=COCCO1`, -4.82%; under `COc1ccc(CNC(=O)C2CCCN(S(=O)(=O)c3cc(C)ccc3OC)C2)cc1` (stereo not drawn), 7.26%. Then `CC(O)[C@H]1CNC(=S)N1CCc1cccc(F)c1` (stereo partly drawn), with 12.9%; and `Cc1nnc(SC(C)C(=O)Nc2c(C)n(C)n(-c3ccccc3)c2=O)n1N` (stereo not drawn), with 0.329%; and `COc1cc2cc(C(N)=O)c(N)nc2cc1OC`, with -11%.
